# Experimental data taken from the supplement of paper PMC8728848.
# The list shows a part of the results.
# B1: Mg3lysM (Mycosphaerella graminicola) (protein)
# chain: APQNPPTSCSAAPQPTGTGSPGTVCGSTTFTNYTVKAGDTLGAIAKQYNSGVCDIAKVNGIDNPDYIKPDQVLSIPANCVTPDNTSCVKPVPVITNTCVLGVGSTYTVKSGDSFSAIATSFNITLASLEARNPQIPNYDLIFPGQVINTPLCPNSVCDSIGTYVIESGDIFYNLAQSNNVTVGQLESLNVNVNVTDIHPGDIIILPHNCHNITASA
# Assays:
# Test in all cases: glycan array binding signal (z-score within array); higher = stronger binding
# Conditions in all cases: glycan notation: IUPAC condensed, linker removed
# [1] = target: Gal6S(b1-4)Glc6S
# Method in brief: (§1)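 Glycan array binding is given as a within-array Z-score, which can be read as non-binding when negative. The arrays, 3228 of them, came from the Consortium for Functional Glycomics database and were retained only where the protein sequence was available. Z-scores were averaged across arrays of the same protein sequence at different concentrations or buffers and across linkers.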
# [2] = target: Gal6S(b1-4)GlcNAc
# Method in brief: as §1
# [3] = target: Gal6S(b1-4)GlcNAc6S
# Method in brief: as §1
# [4] = target: GalNAc(a1-3)Gal
# Method in brief: as §1
# [5] = target: GalNAc(a1-3)GalNAc
# Method in brief: as §1
# [6] = target: GalNAc(a1-3)GalNAc(b1-3)Gal(a1-4)Gal(b1-4)Glc
# Method in brief: as §1
# [7] = target: GalNAc(a1-3)GalNAc(b1-3)Gal(a1-4)Gal(b1-4)GlcNAc
# Method in brief: as §1
# [8] = target: GalNAc(b1-3)Gal
# Method in brief: as §1
# [9] = target: GalNAc(b1-3)Gal(a1-4)Gal(b1-4)GlcNAc
# Method in brief: as §1
# [10] = target: GalNAc(b1-3)Gal(a1-4)Gal(b1-4)GlcNAc(b1-3)Gal(b1-4)Glc
# Method in brief: as §1
# [11] = target: GalNAc(b1-3)Gal(a1-6)Gal(b1-4)Glc
# Method in brief: as §1
# [12] = target: GalNAc(b1-3)GalNAc
# Method in brief: as §1
# [13] = target: GalNAc(b1-3)GlcNAc
# Method in brief: as §1
# [14] = target: GalNAc(b1-4)Gal(b1-4)Glc
# Method in brief: as §1
# [15] = target: GalNAc(b1-4)GlcNAc
# Method in brief: as §1
# [16] = target: GalNAc(b1-4)GlcNAc(b1-2)Man
# Method in brief: as §1
# [17] = target: GalNAc(b1-4)GlcNAc(b1-2)Man(a1-3)[GalNAc(b1-4)GlcNAc(b1-2)Man(a1-6)]Man(b1-4)GlcNAc(b1-4)GlcNAc
# Method in brief: as §1
# [18] = target: GalNAc(b1-4)GlcNAc(b1-3)GalNAc(b1-4)GlcNAc
# Method in brief: as §1
# [19] = target: GalNAc(b1-4)GlcNAc6S
# Method in brief: as §1
# [20] = target: GalNAc(b1-6)GalNAc
# Method in brief: as §1
# [21] = target: GalNAc3S(b1-4)GlcNAc
# Method in brief: as §1
# [22] = target: GalNAc3S(b1-4)GlcNAc3S
# Method in brief: as §1
# [23] = target: GalNAc3S(b1-4)[Fuc(a1-3)]GlcNAc
# Method in brief: as §1
# [24] = target: GalNAc4S6S(b1-4)GlcNAc
# Method in brief: as §1
# [25] = target: GalNAc6S(b1-4)GlcNAc
# Method in brief: as §1
# [26] = target: Glc(a1-4)Glc
# Method in brief: as §1
# [27] = target: Glc(a1-4)Glc(a1-4)Glc(a1-4)Glc
# Method in brief: as §1
# [28] = target: Glc(a1-6)Glc(a1-6)Glc
# Method in brief: as §1
# [29] = target: Glc(a1-6)Glc(a1-6)Glc(a1-6)Glc
# Method in brief: as §1
# [30] = target: Glc(b1-4)Glc
# Method in brief: as §1
# [31] = target: Glc(b1-6)Glc
# Method in brief: as §1
# [32] = target: GlcA(b1-3)Gal
# Method in brief: as §1
# [33] = target: GlcA(b1-3)GlcNAc
# Method in brief: as §1
# [34] = target: GlcA(b1-6)Gal
# Method in brief: as §1
# [35] = target: GlcA3S(b1-3)Gal(b1-4)GlcNAc(b1-2)Man
# Method in brief: as §1
# [36] = target: GlcA3S(b1-3)Gal(b1-4)GlcNAc(b1-3)Gal(b1-4)Glc
# Method in brief: as §1
# [37] = target: GlcNAc(a1-3)Gal(b1-4)GlcNAc
# Method in brief: as §1
# [38] = target: GlcNAc(a1-4)Gal(b1-3)GlcNAc
# Method in brief: as §1
# [39] = target: GlcNAc(a1-4)Gal(b1-4)GalNAc
# Method in brief: as §1
# [40] = target: GlcNAc(a1-4)Gal(b1-4)GlcNAc
# Method in brief: as §1
# [41] = target: GlcNAc(a1-4)Gal(b1-4)GlcNAc(b1-3)Gal(b1-4)Glc
# Method in brief: as §1
# [42] = target: GlcNAc(a1-4)Gal(b1-4)GlcNAc(b1-3)Gal(b1-4)GlcNAc
# Method in brief: as §1
# [43] = target: GlcNAc(a1-4)Gal(b1-4)GlcNAc(b1-3)Gal(b1-4)GlcNAc(b1-3)Gal(b1-4)GlcNAc
# Method in brief: as §1
# [44] = target: GlcNAc(a1-4)Gal(b1-4)GlcNAc(b1-3)Gal(b1-4)[Fuc(a1-3)]GlcNAc(b1-3)Gal(b1-4)[Fuc(a1-3)]GlcNAc
# Method in brief: as §1
# [45] = target: GlcNAc(a1-6)Gal(b1-4)GlcNAc
# Method in brief: as §1
binder,measurement,setting,value
B1,glycan array binding signal (z-score),[1],-0.066
same,glycan array binding signal (z-score),[2],-0.123
same,glycan array binding signal (z-score),[3],-0.082
same,glycan array binding signal (z-score),[4],-0.057
same,glycan array binding signal (z-score),[5],-0.14
same,glycan array binding signal (z-score),[6],-0.115
same,glycan array binding signal (z-score),[7],-0.132
same,glycan array binding signal (z-score),[8],-0.143
same,glycan array binding signal (z-score),[9],-0.285
same,glycan array binding signal (z-score),[10],-0.113
same,glycan array binding signal (z-score),[11],-0.127
same,glycan array binding signal (z-score),[12],-0.061
same,glycan array binding signal (z-score),[13],-0.164
same,glycan array binding signal (z-score),[14],-0.047
same,glycan array binding signal (z-score),[15],0.043
same,glycan array binding signal (z-score),[16],0.08
same,glycan array binding signal (z-score),[17],-0.148
same,glycan array binding signal (z-score),[18],-0.101
same,glycan array binding signal (z-score),[19],-0.006
same,glycan array binding signal (z-score),[20],-0.032
same,glycan array binding signal (z-score),[21],-0.021
same,glycan array binding signal (z-score),[22],-0.061
same,glycan array binding signal (z-score),[23],0.06
same,glycan array binding signal (z-score),[24],-0.136
same,glycan array binding signal (z-score),[25],-0.073
same,glycan array binding signal (z-score),[26],-0.03
same,glycan array binding signal (z-score),[27],-0.014
same,glycan array binding signal (z-score),[28],-0.018
same,glycan array binding signal (z-score),[29],-0.032
same,glycan array binding signal (z-score),[30],0.035
same,glycan array binding signal (z-score),[31],-0.092
same,glycan array binding signal (z-score),[32],-0.097
same,glycan array binding signal (z-score),[33],-0.059
same,glycan array binding signal (z-score),[34],-0.012
same,glycan array binding signal (z-score),[35],-0.096
same,glycan array binding signal (z-score),[36],-0.193
same,glycan array binding signal (z-score),[37],-0.138
same,glycan array binding signal (z-score),[38],-0.03
same,glycan array binding signal (z-score),[39],-0.056
same,glycan array binding signal (z-score),[40],-0.104
same,glycan array binding signal (z-score),[41],-0.085
same,glycan array binding signal (z-score),[42],-0.091
same,glycan array binding signal (z-score),[43],-0.013
same,glycan array binding signal (z-score),[44],-0.042
same,glycan array binding signal (z-score),[45],-0.108
